Data taken from article PMC4336329 (PLoS ONE, 2015).
In all, about 310,000 compounds went through this assay and about 2,200 (0.71%) showed an effect of 50% or more. The effect is printed as a negative number. Some of the results follow.

Biological target: human ether-à-go-go-related gene (hERG) potassium channel (human, UniProt Q12809)
Assay: primary screen, population patch clamp on CHO cells stably expressing hERG

Sequence of human ether-à-go-go-related gene (hERG) potassium channel (Q12809 whole entry, looked up): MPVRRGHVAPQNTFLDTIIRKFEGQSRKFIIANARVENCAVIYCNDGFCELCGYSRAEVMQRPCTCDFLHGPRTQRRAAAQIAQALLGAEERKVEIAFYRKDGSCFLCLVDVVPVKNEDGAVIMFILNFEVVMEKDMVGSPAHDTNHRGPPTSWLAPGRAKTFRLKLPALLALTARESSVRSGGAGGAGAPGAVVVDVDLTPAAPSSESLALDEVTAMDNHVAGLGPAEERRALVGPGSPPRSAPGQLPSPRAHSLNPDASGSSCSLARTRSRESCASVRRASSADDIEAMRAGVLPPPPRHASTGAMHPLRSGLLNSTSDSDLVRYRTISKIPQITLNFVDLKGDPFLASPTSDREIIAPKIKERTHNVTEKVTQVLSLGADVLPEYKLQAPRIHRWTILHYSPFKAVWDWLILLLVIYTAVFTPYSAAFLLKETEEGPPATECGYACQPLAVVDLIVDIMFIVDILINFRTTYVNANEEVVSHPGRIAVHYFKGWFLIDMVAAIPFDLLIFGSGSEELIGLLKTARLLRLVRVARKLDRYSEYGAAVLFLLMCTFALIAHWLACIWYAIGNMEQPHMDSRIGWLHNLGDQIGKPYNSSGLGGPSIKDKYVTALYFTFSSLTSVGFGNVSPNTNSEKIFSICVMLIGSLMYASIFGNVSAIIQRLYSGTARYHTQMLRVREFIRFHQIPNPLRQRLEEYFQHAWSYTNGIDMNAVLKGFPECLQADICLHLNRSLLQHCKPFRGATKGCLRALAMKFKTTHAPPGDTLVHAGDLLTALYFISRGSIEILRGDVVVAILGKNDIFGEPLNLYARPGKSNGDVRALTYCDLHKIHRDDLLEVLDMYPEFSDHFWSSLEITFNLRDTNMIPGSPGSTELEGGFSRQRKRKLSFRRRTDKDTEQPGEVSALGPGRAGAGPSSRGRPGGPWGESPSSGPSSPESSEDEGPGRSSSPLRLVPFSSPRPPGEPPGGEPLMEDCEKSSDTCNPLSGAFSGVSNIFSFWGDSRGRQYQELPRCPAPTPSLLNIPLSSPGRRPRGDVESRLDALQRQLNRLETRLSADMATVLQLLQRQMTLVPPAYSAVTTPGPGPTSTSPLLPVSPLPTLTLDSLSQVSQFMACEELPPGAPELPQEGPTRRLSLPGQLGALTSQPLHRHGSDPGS

Row | Structure (SMILES) | hERG current change (%, negative = inhibition) at 1uM [%]
1 | COc1ccc(-c2oc3cc(O)c(OC)c(O)c3c(=O)c2OC)cc1 | 4.26
2 | CCn1c(SCC(=O)Nc2nc(-c3ccc(C)cc3)cs2)nnc1-c1ccccc1O | 16.5
3 | NC(=O)CC(NC(=O)Cc1ccc(Cl)cc1)c1ccc(NCCCN2CCCC2=O)c([N+](=O)[O-])c1 (centres unmarked) | 4.71
4 | COC(=O)c1ccc(Cn2cnc3c(sc4nc(N5CCOCC5)c5c(c43)CCCC5)c2=O)o1 | 12.1
5 | Cc1ccc(/C=C/C(=O)NCc2ccccn2)o1 | -2.26
6 | NC(=O)c1nn(-c2cccc(Cl)c2)c(=O)cc1O | 0.296
7 | Cc1cc(C)c(C#N)c(SC2CCCCC2=O)n1 (centres unmarked) | 4.04
8 | CC(Sc1nnc(C2CC2)n1C1CC1)C(=O)Nc1ccc(C(N)=O)cc1 (centres unmarked) | -2.36
9 | O=C1c2ccccc2-c2nccnc21 | -15.3
10 | COc1cccc(C2CC(c3ccccc3Cl)Nc3nc(N)nn32)c1 (centres unmarked) | 10.6
11 | O=C(CN1CC(=O)Oc2ccccc21)OCC(=O)c1ccc(F)cc1 | 9.67
12 | COC(=O)C1=C(C)Nc2c(c(=O)n(C)c(=O)n2C)C1c1cccs1 (centres unmarked) | 11.7
13 | O=C(COC(=O)c1ccccc1)NCc1ccco1 | 15.4
14 | COc1ccc(C2=NN(C(=O)CSc3nnnn3C)C(c3ccco3)C2)cc1 (centres unmarked) | 3.72
15 | COc1ccc(-c2c(NC(=O)c3ccco3)n(-c3ccccc3)nc(C)c2=O)cc1 | 12.3
16 | CCNC(=O)CCSc1nc2cc(Cl)ccc2o1 | 13.3
17 | COc1ccc(N(C(=O)/C=C/c2ccccc2)C2=CC3CCC(C2)N3C)cc1.Cl (centres unmarked) | -70.3
18 | COc1ccccc1C(=O)NCCC(=O)N(C)CC(=O)Nc1ccc(C)cc1 | 15.5
19 | O=C(COC(=O)c1ccc([N+](=O)[O-])s1)Nc1ncc(C(F)(F)F)cc1Cl | -5.92
20 | O=C(Cn1nnc(-c2ccccc2)n1)NC1CCS(=O)(=O)C1 (centres unmarked) | 10.9
21 | CCOc1ccc(CNc2nc3ccccc3n2CCN2CCOCC2)cc1.Cl | -28
22 | COc1ccc(NS(=O)(=O)c2ccc(C)c(C(=O)N(C)CCc3ccc(OC)c(OC)c3)c2)cc1 | 3.86
23 | N#C/C(=C/c1ccc(F)cc1)c1nnc(NC(=O)c2ccccc2)s1 | 13.8

Row | Structure (SMILES) | hERG current change (%, negative = inhibition) at 1uM [%]
24 | C=CCn1c(Cc2cccs2)nnc1SCC(=O)NC1CC1 | 9.64
25 | COc1ccc(OC)c(C(C)NC(=O)C(C)n2cc([N+](=O)[O-])cn2)c1 (centres unmarked) | 11.4
26 | COCC(C)n1c(C)cc(C(=O)COC(=O)C2=NN(c3ccccc3)C(=O)CC2)c1C (centres unmarked) | 8.28
27 | COc1ccc(C)cc1NC(=O)NNC(=O)c1cc2ccccc2cc1O | 10.7
28 | COc1cc(/C=N/NC(=O)CC#N)cc(Br)c1O | 11.7
29 | O=C(NCCOc1ccccc1)c1cc(C(=O)NCCOc2ccccc2)cc([N+](=O)[O-])c1 | 0.812
30 | CC(C)(C)N=C1NC(=NC(C)(C)C)c2ccccc21 | -3.75
31 | Cc1cc(Br)ccc1NC(=O)CNC(=O)Cn1ncc(Cl)c(Cl)c1=O | 1.06
32 | CC(=O)N1CCN(S(=O)(=O)c2cccc(C(=O)NNC(=O)Cn3ccc(C(F)(F)F)n3)c2)CC1 | 8.08
33 | CCC1(c2ccc(F)cc2)NC(=O)N(CC(=O)NC2CC2)C1=O (centres unmarked) | 22.5
34 | COc1ccc2c(c1)[nH]c1c(=O)n(CC3CCCO3)cnc12 (centres unmarked) | 14.6
35 | CCc1ccccc1NC(=O)CN(C)C(=O)c1cccc(S(=O)(=O)N2CCCCCC2)c1 | -5.75
36 | CNCCCCOc1ccccc1-c1ccccc1.O=C(O)C(=O)O | 10.4
37 | COc1cccc(CC(=O)NCCCSc2ccccc2)c1 | 1.79
38 | COc1ccc(OC)c2[nH]c(C(=O)N/N=C/c3ccccc3O)cc12 | 7.41
39 | COc1ccc(N(CC(=O)Nc2ccccc2C(N)=O)S(=O)(=O)c2ccc(C)c([N+](=O)[O-])c2)cc1 | -2.85
40 | COc1ccc(C(=O)NCC(=O)N/N=C/c2c(C)[nH]c3ccccc23)cc1 | 5.8
41 | Cc1cc(C)cc(N(C(=O)c2csnn2)C(C(=O)NC(C)(C)C)c2ccncc2)c1 (centres unmarked) | 1.11
42 | Cc1ccsc1C1C=C(c2cccc(Br)c2)Nc2ncnn21 (centres unmarked) | 6.19
43 | CCOC(=O)N1CCN(CC(=O)Nc2cccc(Br)c2)CC1 | -2.11
44 | CC(C)(C)Nc1nc(Cl)nc(NC2CCCCC2)n1 | 4.81
45 | COC(=O)c1ccc(C(=O)OC)c(NC(=O)CSCc2ccc(Br)cc2)c1 | 14.3
46 | O=C(NN=C1CCCCCC1)c1cccnc1 | 10.3

Row | Structure (SMILES) | hERG current change (%, negative = inhibition) at 1uM [%]
47 | Cc1cc(C)c2c(CN3CCN(Cc4ccc5c(c4)OCO5)CC3)cc(=O)oc2c1 | -50.3
48 | CNC(=S)N/N=C(\C)c1ccccc1 | 0.358
49 | CC(C)NC(=S)N/N=C1\CCCCC1C1CCCCC1 (centres unmarked) | 12.7
50 | CCC1(CC)C(=O)N(C)C(=O)NC1=NC | 13.1
51 | CC1(C)Oc2ccc3ccc(=O)oc3c2[C@H](O)[C@H]1O | 13.2
52 | COc1cccc2cc(C(=O)NCCC3=CCCCC3)c(=O)oc12 | 1.32
53 | CC(OC(=O)c1cc2sccc2n1C)C(=O)NC(C)(C)C (centres unmarked) | 5.63
54 | O=C(Nc1ccc(Br)cc1)C1OCCc2ccccc21 (centres unmarked) | 5.36
55 | S=C(Nc1ccc(Oc2ccccc2)cc1)NC1CCCCC1 | 13.7
56 | O=c1ccc(-c2ccccc2)nn1Cc1ccc(F)cc1 | 2.57
57 | COc1ccc(C2=NN(CC(=O)Nc3cc(C)ccc3C)C(=O)CC2)cc1 | 1.16
58 | Cc1ccc2oc(C(=O)N(Cc3nccn3C)C(C)C)c(C)c2c1 | -1.77
59 | Cc1cccc(C)c1NC(=S)N/N=C/c1ccc(OCCC(C)C)cc1 | -5.24
60 | CC1CCCCC12NC(=O)N(CC(=O)NCCc1ccccn1)C2=O (centres unmarked) | -21.5
61 | CC1(C)Cc2c(C#N)c(SCCC#N)nc(N3CCOCC3)c2CS1 | 3.42
62 | COc1cccc(CSc2nnc(C(F)(F)F)n2Cc2ccc(F)cc2)c1 | 3.38
63 | C=CCn1c(C)cc(C(=O)COC(=O)c2cncc(Br)c2)c1C | -1.38
64 | CC(C)c1c(C(=O)N/N=C/c2ccc(OCc3ccccc3)cc2)nnn1-c1nonc1N | 13.8
65 | C/C(CC(=O)NCc1ccc(Cl)cc1)=N\NC(=O)COc1ccc(C)cc1Br | 7.45
66 | CCOC(=O)c1c(NC(=O)CC)sc(C(C)=O)c1C | 10.6
67 | CCCn1nnnc1NCc1ccc(OC)cc1OC | 19.3
68 | O=C(c1ccccc1)N1N=C(c2ccccc2)CC1c1ccccc1O (centres unmarked) | 3.4
69 | CS(=O)(=O)N(CC(=O)Nc1c(F)cccc1F)c1ccc(C23CC4CC(CC(C4)C2)C3)cc1 | 11.2

Row | Structure (SMILES) | hERG current change (%, negative = inhibition) at 1uM [%]
70 | COc1ccc([N+](=O)[O-])c(OC)c1C(=O)NC(=O)Nc1c(F)c(F)c(F)c(F)c1F | 4.71
71 | CCN(CC)C(=O)c1[nH]cnc1C(=O)NC1CCN(C(=O)OC(C)(C)C)CC1 | 11.5
72 | Cc1ccc(Nc2nc(N)nc(-c3oc4ccccc4c3C)n2)cc1 | 8.82
73 | S=C(NC1CCCC1)NC1CC1 | 13.5
74 | CN(C)S(=O)(=O)n1cc(/C=C(\NC(=O)c2ccccc2)C(=O)NCCCn2ccnc2)c2ccccc21 | 18.1
75 | CC(=O)c1ccc2c(c1)OCCOCCOCCO2 | 12.3
76 | CCC(C)C(=O)Nc1cc(C(=O)OC)cc(C(=O)OC)c1 (centres unmarked) | 7.27
77 | Cc1ccc(NC(=O)c2ccc(OC(=O)C(C)Oc3ccc(Cl)cc3C)cc2)cc1 (centres unmarked) | 11.6
78 | Cc1cc(=O)n2c(C)n[nH]c2n1 | 9.05
79 | CCCCC(=O)OCC(=O)c1[nH]c(C)c(C(=O)OCC)c1C | 6.61
80 | CCCCCC1CCC(c2nnc(SCC(C)=O)o2)CC1 (centres unmarked) | 11.5
81 | Cc1nnc(N/N=C/c2ccc(-c3ccccc3F)o2)n1N.Cl | -10.9
82 | CCOC(=O)c1ccc(NC(=O)C(=O)NCC2(c3ccc(OC)cc3)CCOCC2)cc1 | 5.53
83 | Cc1ccc(/C=N\NC(=O)C2CN(S(=O)(=O)c3ccccc3)CCN2S(=O)(=O)c2ccccc2)cc1 (centres unmarked) | 10.5
84 | Cc1cccn2c(=O)nc(SCC(=O)c3ccc(Cl)cc3)nc12 | 1.2
85 | O=C(Cn1cc2c(n1)CCCCC2)NCc1cccs1 | 5.78
86 | O=S(=O)(NCCN1CCCC1)c1ccc(C(F)(F)F)cc1 | 12.3
87 | CN(C(=O)CSc1nc(-c2ccc(F)cc2)cs1)C1CCS(=O)(=O)C1 (centres unmarked) | -15.9
88 | CC(=O)Nc1ccc(-c2csc(NC(=O)c3ccc(C)o3)n2)cc1 | -4.59
89 | O=C(CC(NS(=O)(=O)c1ccc(Cl)cc1)c1ccco1)NCc1cccnc1 (centres unmarked) | -0.782
